Experimental data reported in the RNAGym collection of RNA variant scans (doi:10.1093/nar/gkz1192).
The source gives no read counts; variants with many changes may rest on few reads.

B1: CPEB3 Ribozyme (parent)
chain: UAACAGGGGGCCACAGCAGAAGCGUUCACGUCGCAGCCCCUGUCAGAUUCUGGUGAAUCUGCGAAUUCUGCUGUAUAUCUC

Variants of: B1
Assay: self-cleavage, relative activity (ratio to wild type); higher = more cleavage; in vitro, sequencing
How it was run: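 Relative activity compares each variant's cleaved/total read fraction with that of the unmutated ribozyme. To get these fractions, barcoded CPEB3 ribozyme libraries from rounds of error-prone PCR were transcribed with T7 RNA polymerase for 5 hours at 37°C and then given 15 min of DNase I treatment before EDTA was added. The RNAs were reverse transcribed with template switching and sequenced on Illumina, and DNA sequencing linked barcodes to variants. A minimum of 5 reads applied, and three batches were averaged.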

Question: With UAACAGGGGGCCACAGCGGAAGCGUUCACGUUGCAGCCCCUGUCGGACUCUGGUGAAUCUGCGAAUUCUGCUGUAUAUCUC [A18G C32U A45G U48C] as the variant, how does the self-cleavage read?
Answer: Its self-cleavage is 0.2.

Question: With UAACAGGGGGCCACAGCGGAAGCGUUCACGUAGCAGCCCCUGUCAGAUUCUGGUGAAUCUGCGAGUUCUGCUGUAUAUCUC [A18G C32A A65G] as the variant, how does the self-cleavage read?
Answer: Its self-cleavage is 0.09.

Question: For UAACAGGGGGCCACAGCGGAAGCGUUCAUGUCGCAGCCCCUGUCAGAUUCUGGUGAAUCUGCGAAUUCUACUGUAUGUCUC [A18G C29U G70A A77G], which self-cleavage is on record?
Answer: The self-cleavage was 0.11.

Question: For UAACAGGGGGCCACAGCGGAAGCGUUGACGUCGCAGCCCCUGUCAGAUCCUGGAGAACCUGCGAAUUCUGGUGUAUAUCUC [A18G C27G U49C U54A U58C C71G], which self-cleavage is on record?
Answer: The self-cleavage was 0.05.

Question: With UAACAGGGGGCCACAGCGGAAGCGUUCACGUCGCAGCCCCUGUCAGUUUCUGGUGAAUCUGCGAAUUCUGCUGUAUACCUC [A18G A47U U78C] as the variant, how does the self-cleavage read?
Answer: Its self-cleavage is 0.26.

Question: With UAACAGGGGGCCACAGCGGAAGCGUUCACGUCGCAGCCCCUGUCAGAUUCUGGUGUAUCUGCGAAUUCUGCCAUAUGUCUC [A18G A56U U72C G73A A77G] as the variant, how does the self-cleavage read?
Answer: Its self-cleavage is 0.47.

Question: Which self-cleavage does the source give for UAACAGGGGGCCACAGCGGAAGCGUUCACGUUGCAGCCCCUGUCAGAUCCUAGUGAAUCUGCGAAAUCUGCUGUAUAUCUC [A18G C32U U49C G52A U66A] here?
Answer: The self-cleavage was 0.08.

Question: Which self-cleavage does the source give for UAACAGGGGGCCACAGCGGAAGAGUUCACGGCGCAGCCCCUGUCAGAUUCUGGUGGAUCUGCGAAUUCUGCUGUAUAUCUC [A18G C23A U31G A56G] here?
Answer: Its self-cleavage is 0.05.

Question: With UAACAGGGGGCCACAGCGGAAGCGUUCACGUAGCAGCCCCUGUCAGAUUCUGGUAAAUCUGCGAAUUCUGCUGUGUAUCUC [A18G C32A G55A A75G] as the variant, how does the self-cleavage read?
Answer: Its self-cleavage is 0.36.

Question: For UAACAGGGGGCCACAGCGGAAGCGUUCACGUCGCAGCCCCUGUCAGAUUCUGGUGAGACUGCCAAUUCUUCUGUAUAUCUC [A18G A57G U58A G63C G70U], which self-cleavage is on record?
Answer: Its self-cleavage is 0.09.

Question: For UAACAGGGGGCCACAGCGGAAGCGUUCACGUCGCAGCCCCUGUCAGAUUCUGGUGAAUCUGCGAAUUCUGCUGUAUGUCCC [A18G A77G U80C], which self-cleavage is on record?
Answer: Its self-cleavage is 0.87.

Question: For UAACAGGGGGCCACAGCGGAAGCGUUCACGUCGCAGCCCCUGUCAGGUUCUGGUGGAUCUGCGAAUUCUGCGGUAUAUCUC [A18G A47G A56G U72G], which self-cleavage is on record?
Answer: Its self-cleavage is 0.14.

Question: With UAACAGGGGGCCACAGCGGAAGCGUUCACGUCGCAGCCCCUGUCAGAUUCUGGUGAAUCUGCGGGUUCUGCUGUAUAUCUC [A18G A64G A65G] as the variant, how does the self-cleavage read?
Answer: Its self-cleavage is 0.24.

Question: With UAACAGGGGGCCACAGCGGAAGCGUUUACGACGCAGCCCCCGUCAGAUUCUGGUGAAUCUCCGAAUUCUGCUGUAUACCUC [A18G C27U U31A U41C G61C U78C] as the variant, how does the self-cleavage read?
Answer: The self-cleavage was 0.07.

Question: With UAACAGGGGGCCACAGCGGAAGUGUUCACGUCGCAGCCCCUGUCAAAUUCAGGUGAAUCUGCGAAUUCUGCUGUAUAUCUC [A18G C23U G46A U51A] as the variant, how does the self-cleavage read?
Answer: Its self-cleavage is 0.18.

Question: Which self-cleavage does the source give for UAACAGGGGGCCACAGCGGAAGCGUUCAUGUCGCAGCCCUUGUCAGACUCUGGUGAAUCUGCGAAUUCGGCUGUAUAUCUC [A18G C29U C40U U48C U69G] here?
Answer: The self-cleavage was 0.06.

Question: Which self-cleavage does the source give for UAACAGGGGGCCACAGCGGAAGCGUUCACGUCGCAGCCCCUGUCAGGUUCUGGUGAAUCUGCGAAUUCUGCUGUAUACCUC [A18G A47G U78C] here?
Answer: Its self-cleavage is 0.36.

Question: With UAACAGGGGGCCACAGCGGAAGCGUUCACGUCGCAGCCCCUGUCAGAUUCUGGUGAAUCUGCGGAUUCUGCUGUAUAUCCC [A18G A64G U80C] as the variant, how does the self-cleavage read?
Answer: The self-cleavage was 0.6.

Question: For UAACAGGGGGCCACAGCGGAAGCGUUCACGUUGCAGCCCCUGUCAGAUUCUGGUGAAUCUGCGAAUUCUGCUGUAUACCUC [A18G C32U U78C], which self-cleavage is on record?
Answer: The self-cleavage was 0.15.

Question: With UAACAGGGGGCCACAGCGGAAGCGUUCACGUCGCAGCCCCUGUCAGGUUCCGGUGAAUCUGCGAAUUCUGCCGUAUAUCUC [A18G A47G U51C U72C] as the variant, how does the self-cleavage read?
Answer: The self-cleavage was 0.53.

Question: Which self-cleavage does the source give for UAACAGGGGGCCACAGCGGAAGCGUUCAUGUCGCAGCCCCUGUCAUAUUCUGGUGAAUCUGCGAAUUCCGCUGUAUAUCUC [A18G C29U G46U U69C] here?
Answer: The self-cleavage was 0.13.

Question: For UAACAGGGGGCCACAGCGGAAGCGUUCACGUUGCAGCCCCUGUCAGACUCCGGUGAAUCUGCGAACUCUGCAGUAUAUCUC [A18G C32U U48C U51C U66C U72A], which self-cleavage is on record?
Answer: The self-cleavage was 0.08.

Question: Which self-cleavage does the source give for UAACAGGGGGCCACAGCGGAAGCGUUCACGUCGCAGCCCCUGUCAGAUUCUGGUGAUUCUGCGAAUUCUGCUGUAUAUCAC [A18G A57U U80A] here?
Answer: The self-cleavage was 0.19.

Question: With UAACAGGGGGCCACAGCGGAAGCGUUCACGUCGCAGCCCCUGUCAGAUUCUGGUGAAUCUGCGUAUCCCGCUGUAUAUCUC [A18G A64U U67C U69C] as the variant, how does the self-cleavage read?
Answer: Its self-cleavage is 0.2.

Question: With UAACAGGGGGCCACAGCGGAAGCGUUCACGUCGCAGCCCCUGUCAGAUUCUGGUGAAUCUGCGACUCCUGCUGUAUAUCUC [A18G A65C U67C] as the variant, how does the self-cleavage read?
Answer: Its self-cleavage is 0.2.

Question: Which self-cleavage does the source give for UAACAGGGGGCCACAGCGGAAGCGUUCACGUCGCAGCCCCUGUCAGAUUCUGGUGGAUCUGCGAAUUCUGCUGUAUACCUC [A18G A56G U78C] here?
Answer: Its self-cleavage is 0.38.

Question: With UAACAGGGGGCCACAGCGGAAGAGUUCACGUCGCGGCCCCUGUCAGAUUCUGGUGAGUCCGCGAAUUCUGCUGUAUAUCUC [A18G C23A A35G A57G U60C] as the variant, how does the self-cleavage read?
Answer: The self-cleavage was 0.08.

Question: With UAACAGGGGGCCACAGCGGAAGCGUUCACGUCGCAGCCCCUGUCAGAUUCUGGUGGAUCUGCGAAUUCUGCUGUACUUCUC [A18G A56G U76C A77U] as the variant, how does the self-cleavage read?
Answer: The self-cleavage was 0.5.

Question: Which self-cleavage does the source give for UAACAGGGGGCCACAGCGGAAGCGUUCACGUCGCAGCCCCUGUCAGAUUCUGGUGAGUCUGCGGAUUCUGCUGUAUAUCUC [A18G A57G A64G] here?
Answer: Its self-cleavage is 0.43.

Question: Which self-cleavage does the source give for UAACAGGGGGCCACAGCGGAAGCGUUCACGUCGCAGCCCCUGUCAGGUUCUGGAGAAUCUGCGGAUUCUGCUGUAUAUCUC [A18G A47G U54A A64G] here?
Answer: The self-cleavage was 0.3.

Question: For UAACAGGGGGCCACAGCGGAAGCGUUCACGUAGCUGCCCCCGUCAGAUUCUGGUGAAUCUGCGAAUUCUGCUGUAUAUCUC [A18G C32A A35U U41C], which self-cleavage is on record?
Answer: Its self-cleavage is 0.07.

Question: Which self-cleavage does the source give for UAACAGGGGGCCACAGCGGAAGCGUUUACAUCGCAGCCCCUGUCAGAUUCUGGCGAAUCUGCGAAUUCUGCUGUAUUUCCC [A18G C27U G30A U54C A77U U80C] here?
Answer: Its self-cleavage is 0.27.

Question: For UAACAGGGGGCCACAGCGGAAGCGUUCACGUAGCAGCCCCUGUCAGAUUCUGGUGAAUCUGCGAAUUCUGCUGUGUAUCUC [A18G C32A A75G], which self-cleavage is on record?
Answer: The self-cleavage was 0.09.

Question: For UAACAGGGGGCCACAGCGGAAGCGUUCACGUCGCAGCCCCUGUCAGGUUCUGGUGAAUCUGCGAAUUCUGCUGUAUAUCCC [A18G A47G U80C], which self-cleavage is on record?
Answer: Its self-cleavage is 0.82.
